Experimental data reported in US20110021424A1 (published 2011).

Assays:
[1] = biological target: T1, alpha-2 macroglobulin (MP biomedicals/Cappel, #55833) (human, UniProt P01023 24-1474); experiment: dot blot
T1 sequence (looked up): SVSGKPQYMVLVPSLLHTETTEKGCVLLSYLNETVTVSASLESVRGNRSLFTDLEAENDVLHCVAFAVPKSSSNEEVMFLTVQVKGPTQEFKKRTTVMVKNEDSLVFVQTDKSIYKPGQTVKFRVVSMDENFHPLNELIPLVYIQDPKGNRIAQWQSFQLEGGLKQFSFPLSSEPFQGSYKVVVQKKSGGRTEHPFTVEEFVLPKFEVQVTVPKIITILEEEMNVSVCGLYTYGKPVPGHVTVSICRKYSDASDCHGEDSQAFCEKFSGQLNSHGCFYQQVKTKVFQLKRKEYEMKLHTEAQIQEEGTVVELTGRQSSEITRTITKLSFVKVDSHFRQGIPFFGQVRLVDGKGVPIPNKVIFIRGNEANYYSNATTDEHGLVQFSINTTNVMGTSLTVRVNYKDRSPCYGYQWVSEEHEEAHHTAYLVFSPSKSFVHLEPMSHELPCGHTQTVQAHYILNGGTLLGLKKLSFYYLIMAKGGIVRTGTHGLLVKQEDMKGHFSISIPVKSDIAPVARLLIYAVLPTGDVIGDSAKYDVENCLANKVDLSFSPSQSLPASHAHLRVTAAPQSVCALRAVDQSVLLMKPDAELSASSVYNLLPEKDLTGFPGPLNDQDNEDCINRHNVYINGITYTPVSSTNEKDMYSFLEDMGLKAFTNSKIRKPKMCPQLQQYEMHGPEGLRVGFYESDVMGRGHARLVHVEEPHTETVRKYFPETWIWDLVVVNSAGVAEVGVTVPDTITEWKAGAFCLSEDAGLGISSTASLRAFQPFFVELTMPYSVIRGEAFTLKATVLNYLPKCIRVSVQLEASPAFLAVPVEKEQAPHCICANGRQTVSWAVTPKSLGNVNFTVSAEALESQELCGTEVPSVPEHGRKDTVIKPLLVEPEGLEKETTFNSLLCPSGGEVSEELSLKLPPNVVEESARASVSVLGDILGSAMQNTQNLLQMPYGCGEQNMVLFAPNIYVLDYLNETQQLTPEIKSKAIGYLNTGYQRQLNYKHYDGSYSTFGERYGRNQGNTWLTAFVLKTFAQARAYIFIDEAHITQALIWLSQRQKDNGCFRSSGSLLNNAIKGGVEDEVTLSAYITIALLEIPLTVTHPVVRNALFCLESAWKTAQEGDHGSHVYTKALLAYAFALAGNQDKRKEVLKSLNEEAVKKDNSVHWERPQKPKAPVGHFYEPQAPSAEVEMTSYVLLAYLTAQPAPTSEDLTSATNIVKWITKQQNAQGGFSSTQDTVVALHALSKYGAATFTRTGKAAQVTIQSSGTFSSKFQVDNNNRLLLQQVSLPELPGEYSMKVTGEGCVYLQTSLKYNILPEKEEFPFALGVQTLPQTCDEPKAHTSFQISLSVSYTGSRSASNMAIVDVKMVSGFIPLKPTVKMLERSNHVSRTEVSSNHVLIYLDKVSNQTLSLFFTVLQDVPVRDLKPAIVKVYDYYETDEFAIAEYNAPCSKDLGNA

[2] = biological target: transthyretin (Sigma, #P1742) (human, UniProt P02766 21-147); experiment: dot blot
[3] = biological target: human Serum Albumine (HSA, Sigma, #A3782) (human, UniProt P02768 25-609); experiment: dot blot
[4] = biological target: T2, Human PDGF-sRα (R&D Systems, #322-PR/CF) (human, UniProt P16234 24-524, limits assumed); experiment: dot blot
T2 construct: Bought; also called human PDGF-Rα; PDGF-Rα

hemopexin (Agilent) = biological target: T3, hemopexin (Agilent) (human, UniProt P02790 24-462); experiment: dot blot
T3 sequence (looked up): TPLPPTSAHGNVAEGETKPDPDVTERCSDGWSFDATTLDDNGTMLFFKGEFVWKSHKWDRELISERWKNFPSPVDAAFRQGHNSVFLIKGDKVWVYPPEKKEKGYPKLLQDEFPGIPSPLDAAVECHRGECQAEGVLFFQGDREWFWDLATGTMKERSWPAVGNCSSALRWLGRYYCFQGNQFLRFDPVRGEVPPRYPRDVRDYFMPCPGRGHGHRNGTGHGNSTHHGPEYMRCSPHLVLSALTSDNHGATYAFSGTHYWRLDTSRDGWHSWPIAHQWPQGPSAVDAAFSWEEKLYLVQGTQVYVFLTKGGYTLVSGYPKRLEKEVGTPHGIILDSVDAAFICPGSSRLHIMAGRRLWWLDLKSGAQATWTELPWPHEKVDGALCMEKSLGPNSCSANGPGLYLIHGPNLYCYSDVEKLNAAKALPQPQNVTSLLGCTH

[5] = biological target: streptavidin (Pierce, #21122) (UniProt P22629 37-163, limits assumed); experiment: dot blot
[6] = biological target: T4, Murine PDGF-Rβ-Fc (R&D Systems, #1042-PR/CF) (murine, UniProt P05622 32-530, limits assumed); experiment: dot blot, dimeric Z variant
T4 construct: Bought; also called mouse PDGF-Rβ; mPDGF-Rβ; not shown: Fc part, bought, not described
T4 sequence (looked up): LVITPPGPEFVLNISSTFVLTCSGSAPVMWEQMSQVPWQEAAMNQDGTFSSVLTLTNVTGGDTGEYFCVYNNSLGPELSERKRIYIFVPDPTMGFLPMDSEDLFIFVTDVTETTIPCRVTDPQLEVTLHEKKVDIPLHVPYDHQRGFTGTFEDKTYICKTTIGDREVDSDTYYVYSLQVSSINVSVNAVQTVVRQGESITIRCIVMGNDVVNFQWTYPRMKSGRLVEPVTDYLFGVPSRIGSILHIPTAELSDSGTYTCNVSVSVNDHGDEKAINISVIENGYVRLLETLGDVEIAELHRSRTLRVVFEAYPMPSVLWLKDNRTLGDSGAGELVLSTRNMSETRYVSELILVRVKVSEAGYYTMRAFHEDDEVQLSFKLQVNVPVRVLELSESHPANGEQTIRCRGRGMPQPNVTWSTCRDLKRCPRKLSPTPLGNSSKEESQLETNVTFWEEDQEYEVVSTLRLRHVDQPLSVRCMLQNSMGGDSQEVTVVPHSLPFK

B1: His6-(Z02465)2-Cys (designed binder)
chain: MGSSHHHHHHLQVDNKFNKELIEAAAEIDALPNLNRRQWNAFIKSLVDDPSQSANLLAEAKKLNDAQAPKVDNKFNKELIEAAAEIDALPNLNRRQWNAFIKSLVDDPSQSANLLAEAKKLNDAQAPKVDC
notes: also called Z02465 (dimer)
- binding result [1]: no binding
- binding result [2]: no binding
- binding result [3]: no binding
- binding result [4]: no binding
- binding result (hemopexin (Agilent)): no binding
- binding result [5]: no binding
- binding result [6]: binds

B2: His6-(Z02483)2-Cys (designed binder)
chain: MGSSHHHHHHLQVDNKFNKELVKAAAEIDALPNLNRRQWNAFIKSLVDDPSQSANLLAEAKKLNDAQAPKVDNKFNKELVKAAAEIDALPNLNRRQWNAFIKSLVDDPSQSANLLAEAKKLNDAQAPKVDC
notes: also called Z02483 (dimer)
- binding result [1]: no binding
- binding result [2]: no binding
- binding result [3]: no binding
- binding result [4]: no binding
- binding result (hemopexin (Agilent)): no binding
- binding result [5]: no binding
- binding result [6]: binds
